{
  "source": "PubChem BioAssay (Tox21)",
  "key": {"[1]": {"test": "qHTS RealTime-Glo MT Cell Viability Assay in HEK293 cells - 24 hour (AID 1224886); note: nearly all actives have a fitted effect of over 50% in size; note: potency is the fitted concentration of half-maximal effect", "method_in_brief": "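Nonlytic real-time viability readout: viable cells convert prosubstrate to NanoLuc substrate, giving luminescence proportional to live cell number. HEK293, 600 cells/well, compound added after 5 h, continuous culture at 37 C.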"}, "[2]": {"test": "A CellTox Green Cytotoxicity Assay to monitor cytotoxicity in HEK293 cells - 16 hour (AID 1224888); note: nearly all actives have a fitted effect of over 35% in size; note: potency is the fitted concentration of half-maximal effect", "method_in_brief": "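Seeding of HEK293 cells together with cytotoxicity dye preceded a 5 h incubation at 37 C/5% CO2. Test compounds in DMSO were then added and fluorescence monitored across 40 h.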"}, "[3]": {"test": "qHTS assay to identify small molecule antagonists of the androgen receptor (AR) signaling pathway using the MDA cell line in the presence of 0.5 nM R1881 - cell viability counter screen (AID 1259242); note: potency is the fitted concentration of half-maximal effect; nearly all actives have a fitted effect of over 45% in size", "method_in_brief": "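R1881 at 0.5 nM final stimulated MDA-kb2 cells during 16 hr compound treatment at 37C. Cytotoxicity read: CellTiter-Fluor fluorescence after 30 min.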"}, "[4]": {"test": "qHTS assay to identify small molecule antagonists of the sonic hedgehog signaling (Shh) pathway (AID 1259369; calls by dose curve; note: potency is the fitted concentration of half-maximal effect; nearly all actives have a fitted effect of over 45% in size)", "method_in_brief": "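Conditioned medium drives Shh signalling in 3T3Gli1-Luc cells; compounds in DMSO co-applied, 24hr at 37 C, then luciferase luminescence.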"}, "[5]": {"test": "qHTS RealTime-Glo MT Cell Viability Assay in HEK293 cells - 8 hour (AID 1224887); note: potency is the fitted concentration of half-maximal effect; nearly all actives have a fitted effect of over 50% in size", "method_in_brief": "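Tox21 screen in HEK293 using RealTime-Glo MT chemistry, with cells and reagent co-dispensed. Luminescence proportional to viable cell number was captured at intervals during 40 h compound exposure at 37 C.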"}, "[6]": {"test": "qHTS assay to identify small molecule HDAC inhibitors (AID 1259364); note: top concentration of the series differs between compounds; % is set by controls: 0 for no effect and ±100 for the full control effect; nearly all actives have a fitted effect of over 45% in size", "method_in_brief": "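Relative class I and II HDAC activity is taken from the luminogenic signal in HCT-116 cells, with compound exposure 2 hr and reagent development 30 min at room temperature.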"}, "[7]": {"test": "qHTS assay to identify small molecule agonists of the sonic hedgehog signaling (Shh) pathway - cell viability counter screen (AID 1259366); note: potency is the fitted concentration of half-maximal effect; nearly all actives have a fitted effect of over 50% in size", "method_in_brief": "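Compounds in DMSO were pin-transferred onto 3T3 Gli1-Luc cells that had settled 4hr; plates then stood 24hr at 37C and 5% CO2. One hour before the end, CellTiter-Fluor was added and fluorescence recorded.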"}, "[8]": {"test": "qHTS assay to identify small molecule agonists of the sonic hedgehog signaling (Shh) pathway (AID 1259368; calls by dose curve; note: nearly all actives have a fitted effect of over 15% in size; note: potency is the fitted concentration of half-maximal effect)", "method_in_brief": "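Mouse fibroblast (NIH/3T3) reporter cells with stably integrated Gli1-Luc were treated 24 hr with compound; firefly luciferase luminescence served as the read-out.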"}, "[9]": {"test": "qHTS assay to identify small molecule agonists of the androgen receptor (AR) signaling pathway in the presence of an antagonist - cell viability counter screen (AID 1259379); note: potency is the fitted concentration of half-maximal effect; nearly all actives have a fitted effect of over 25% in size", "method_in_brief": "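A CellTiter-Fluor read-out measured viability of MDA-kb2 reporter cells (MMTV promoter with AR and GR response elements). Treatment: nilutamide 3.0uM final with compounds at 15 concentrations, 16 hr, 37C, 0% CO2.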"}, "[10]": {"test": "qHTS assay to identify small molecule antagonists of the sonic hedgehog signaling (Shh) pathway - cell viability counter screen (AID 1259367); note: potency is the fitted concentration of half-maximal effect; nearly all actives have a fitted effect of over 55% in size", "method_in_brief": "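Using CellTiter-Fluor, viability of Gli1-Luc reporter 3T3 cells is read by fluorescence in the wells used for the Shh luciferase assay. Treatment lasts 23 hr with conditioned medium, then reagent 1 hr at 37C.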"}, "[11]": {"biological_target": "Estrogen receptor (Homo sapiens) (UniProt P03372)", "sequence (P03372 whole entry, looked up)": "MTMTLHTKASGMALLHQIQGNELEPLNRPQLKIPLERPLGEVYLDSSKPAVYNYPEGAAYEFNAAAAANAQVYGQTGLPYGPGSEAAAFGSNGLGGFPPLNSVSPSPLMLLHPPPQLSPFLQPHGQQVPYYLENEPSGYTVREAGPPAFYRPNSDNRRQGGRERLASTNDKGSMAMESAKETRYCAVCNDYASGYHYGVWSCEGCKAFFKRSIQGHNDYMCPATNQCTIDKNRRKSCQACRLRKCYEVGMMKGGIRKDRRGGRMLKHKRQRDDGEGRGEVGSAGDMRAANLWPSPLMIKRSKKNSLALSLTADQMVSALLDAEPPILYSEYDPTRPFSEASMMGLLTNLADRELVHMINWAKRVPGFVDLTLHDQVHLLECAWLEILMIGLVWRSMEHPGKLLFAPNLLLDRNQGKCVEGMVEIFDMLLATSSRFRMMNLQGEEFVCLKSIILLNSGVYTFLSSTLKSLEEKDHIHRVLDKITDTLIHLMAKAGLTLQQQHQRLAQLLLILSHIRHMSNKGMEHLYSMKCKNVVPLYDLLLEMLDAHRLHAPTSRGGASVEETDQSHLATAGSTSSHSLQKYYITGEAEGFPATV", "test": "qHTS assay to identify small molecule antagonists of the estrogen receptor alpha (ER-alpha) signaling pathway using the BG1 cell line in the presence of 0.1 nM 17-beta-estradiol (AID 1259244); note: nearly all actives have a fitted effect of over 50% in size; note: potency is the fitted concentration of half-maximal effect", "method_in_brief": "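VM7Luc4E2; 4xERE-luciferase; 0.1 nM E2 final; 22 h co-incubation, 37C; ONE-Glo luminescence after 30 min at room temperature.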"}, "[12]": {"biological_target": "Estrogen receptor beta (Homo sapiens) (UniProt Q92731)", "sequence (Q92731 whole entry, looked up)": "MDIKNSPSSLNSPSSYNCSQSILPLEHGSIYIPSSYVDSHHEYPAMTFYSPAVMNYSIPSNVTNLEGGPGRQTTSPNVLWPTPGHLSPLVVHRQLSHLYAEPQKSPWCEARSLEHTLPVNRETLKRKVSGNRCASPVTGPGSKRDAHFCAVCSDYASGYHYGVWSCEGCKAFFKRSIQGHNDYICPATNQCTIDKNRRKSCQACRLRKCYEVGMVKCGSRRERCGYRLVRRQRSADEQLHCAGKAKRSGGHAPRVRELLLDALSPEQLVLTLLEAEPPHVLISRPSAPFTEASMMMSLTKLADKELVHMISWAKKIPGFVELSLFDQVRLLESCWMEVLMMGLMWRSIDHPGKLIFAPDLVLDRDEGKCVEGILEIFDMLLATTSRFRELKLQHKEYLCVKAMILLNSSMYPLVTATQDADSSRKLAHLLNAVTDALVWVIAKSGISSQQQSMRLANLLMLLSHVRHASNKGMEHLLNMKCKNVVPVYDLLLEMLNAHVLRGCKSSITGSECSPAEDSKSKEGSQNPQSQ", "test": "qHTS assay to identify small molecule antagonists of the estrogen receptor beta (ER-beta) signaling pathway (AID 1259378; active = well fitted inhibition curve with a large enough effect in the signal ratio in the repeat runs, not every such curve was filed as active; inconclusive = weak or mixed curves, or effect the other way; inactive = no such curve, though single readings can be large or run the other way; the % refers to the signal ratio; note: potency is the fitted concentration of half-maximal effect; for activity, negative = inhibition: % is set by controls: 0 for no effect and ±100 for the full control effect)", "settings": "ER-beta-UAS-bla HEK293T, beta-lactamase FRET ratio, 16 h; activity, negative = inhibition: at 92.4 µM (top of the series) unless noted", "method_in_brief": "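Antagonist mode: compounds added to beta-lactamase reporter HEK293T ER-beta-UAS cells stimulated with E2 (1nM final), 16 hr at 37C. LiveBLAzer B/G FRET substrate, 2 hours room temperature, fluorescence read-out.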"}, "[13]": {"test": "qHTS assay to identify small molecule antagonists of the estrogen receptor alpha (ER-alpha) signaling pathway using the BG1 cell line in the presence of 0.1 nM 17-beta-estradiol - cell viability counter screen (AID 1259241); note: potency is the fitted concentration of half-maximal effect; nearly all actives have a fitted effect of over 40% in size", "method_in_brief": "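Following 5 days in phenol red-free medium with charcoal-stripped serum, VM7Luc4E2 cells received test compounds alongside 0.1 nM 17beta-estradiol (final) at 37C for 22 hr. Live cells were then quantified via protease-substrate fluorescence.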"}, "[14]": {"test": "qHTS assay to identify small molecule HDAC inhibitors - cell viability counter screen (AID 1259365)", "method_in_brief": "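HCT-116 wild-type, overnight attachment; 2hr drug exposure, 37C; CellTiter-Glo luminescent ATP readout after 30min RT.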"}, "[15]": {"biological_target": "Estrogen receptor beta (Homo sapiens) (UniProt Q92731)", "test": "qHTS assay to identify small molecule agonists of the estrogen receptor beta (ER-beta) signaling pathway (AID 1259377; active = well fitted activation curve with a large enough effect in the signal ratio in the repeat runs, not every such curve was filed as active; inconclusive = weak or mixed curves, or effect the other way; the % refers to the signal ratio; note: potency is the fitted concentration of half-maximal effect)", "settings": "ER-beta-UAS-bla HEK293T, beta-lactamase FRET ratio, 16 h; activation: at 92.4 µM (top of the series) unless noted", "method_in_brief": "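qHTS in ER-beta-UAS-bla HEK293T cells: 6 hr settling, then 16 hr compound at 37C, then LiveBLAzer substrate 2 h at RT before fluorescence reading.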"}, "[16]": {"test": "qHTS assay to identify small molecule phospholipidosis (PLD) inducers (AID 1259344; active = well fitted curve in the direction sought with a large enough effect; inconclusive = small, poorly fitted or top-dose-only effect, or another doubt; inactive = no such curve, though single readings can be large; an effect the other way counts as inactive or inconclusive; note: potency is the fitted concentration of half-maximal effect)", "method_in_brief": "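Fluorescent phospholipid staining (LipidTOX Red) measured by automated microscopy in fixed HepG2 cells after 24 h treatment; nuclei counterstained with Hoechst 33342; amiodarone as reference inducer.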"}},
  "note": "Values joined by “and” are separate entries in the source; they are usually repeats but may differ in a detail not shown here. Equal values may be shown once. The inconclusive results got no clear call from the source; some entries with a clear call stand among them for comparison. For some assays here: Potencies of inconclusive entries are doubtful fits and often do not repeat. Active and inactive are the calls of the source. Unless noted, calls come from the whole dose curve; as a rule, active = well fitted curve in the direction sought with a large enough effect in the repeat runs; inconclusive = weak or mixed curves; inactive = no such curve, though single readings can be large; an effect the other way counts as inactive or inconclusive. Tags give direction and shape of the fitted curve or compound fluorescence and quenching.",
  "data": [
    {"smiles": "O=[N+]([O-])c1c(Cl)c(Cl)c(Cl)c(Cl)c1Cl", "values": [
      {"measurement": "Potency", "setting": "[1]", "result": "inactive"},
      {"measurement": "Potency", "setting": "[2]", "result": "inconclusive: 21.8 µM [activator, single point]"},
      {"measurement": "Potency", "setting": "[3]", "result": "inconclusive: 60.8 µM [cytotoxic] and inconclusive: 61.1 µM [cytotoxic]"},
      {"measurement": "Potency", "setting": "[4]", "result": "inconclusive: 3.42 µM [inhibitor, full curve, poor fit]"}
    ]},
    {"smiles": "CC1(C)C(/C=C(\\Cl)C(F)(F)F)C1C(=O)OC(C#N)c1cccc(Oc2ccccc2)c1", "note": "(stereo not given)", "values": [
      {"measurement": "Potency", "setting": "[1]", "result": "inconclusive: 39.5 µM [cytotoxic, partial curve, poor fit]"},
      {"measurement": "Potency", "setting": "[5]", "result": "inconclusive: 39.5 µM [cytotoxic, partial curve, poor fit]"},
      {"measurement": "Potency", "setting": "[6]", "result": "inactive"},
      {"measurement": "Potency", "setting": "[7]", "result": "inconclusive: 39.2 µM [rising, partial curve]"}
    ]},
    {"smiles": "N#Cc1c[nH]cc1-c1cccc2c1OC(F)(F)O2", "values": [
      {"measurement": "Potency", "setting": "[1]", "result": "inconclusive: 6.16 µM [cytotoxic, full curve]"},
      {"measurement": "Potency", "setting": "[5]", "result": "inconclusive: 49 µM [cytotoxic, partial curve, poor fit]"},
      {"measurement": "Potency", "setting": "[8]", "result": "inactive"},
      {"measurement": "Potency", "setting": "[4]", "result": "inconclusive: 9.69 µM [inhibitor, full curve, poor fit]"},
      {"measurement": "Potency", "setting": "[9]", "result": "inconclusive: 68.6 µM [cytotoxic, partial curve, poor fit]"}
    ]},
    {"smiles": "C[C@@H]1C[C@@H]([C@H](O)CC2CC(=O)NC(=O)C2)C(=O)[C@@H](C)C1", "values": [
      {"measurement": "Potency", "setting": "[1]", "result": "active: 434 nM and active: 245 nM and active: 169 nM"},
      {"measurement": "Potency", "setting": "[5]", "result": "inconclusive: 2.75 µM [cytotoxic, partial curve, poor fit] and inconclusive: 425 nM [cytotoxic, partial curve, poor fit]"},
      {"measurement": "Potency", "setting": "[2]", "result": "inactive"},
      {"measurement": "Potency", "setting": "[7]", "result": "active: 2.16 µM and inconclusive: 6.11 µM [cytotoxic, full curve] and inconclusive: 3.35 µM [cytotoxic, full curve]"},
      {"measurement": "Potency", "setting": "[10]", "result": "active: 136 nM and active: 969 nM and inconclusive: 1.68 µM [cytotoxic, full curve]"},
      {"measurement": "Potency", "setting": "[4]", "result": "active: 12.1 nM and active: 48.6 nM and active: 150 nM"},
      {"measurement": "Potency", "setting": "[9]", "result": "inconclusive: 765 nM [cytotoxic, full curve] and inconclusive: 686 nM [cytotoxic, full curve]"}
    ]},
    {"smiles": "CC(C)Oc1cccc(NC(=O)c2ccccc2C(F)(F)F)c1", "values": [
      {"measurement": "Potency", "setting": "[1]", "result": "inconclusive: 21.9 µM [cytotoxic, partial curve]"},
      {"measurement": "Potency", "setting": "[2]", "result": "active: 49 µM"},
      {"measurement": "Potency", "setting": "[11]", "result": "inconclusive: 38.6 µM [inhibitor]"},
      {"measurement": "Potency", "setting": "[10]", "result": "inconclusive: 24.3 µM [cytotoxic, partial curve, poor fit]"},
      {"measurement": "activity, negative = inhibition", "setting": "[12]", "result": "inconclusive: -21.2%"}
    ]},
    {"smiles": "CN1CCc2cc(Cl)c(O)cc2[C@H]2c3ccccc3CC[C@@H]21", "values": [
      {"measurement": "Potency", "setting": "[1]", "result": "inconclusive: 9.52 µM [cytotoxic, partial curve]"},
      {"measurement": "Potency", "setting": "[13]", "result": "inconclusive: 8.41 µM [cytotoxic, partial curve, poor fit]"},
      {"measurement": "Potency", "setting": "[9]", "result": "inconclusive: 11.9 µM [cytotoxic, partial curve, poor fit]"}
    ]},
    {"smiles": "OC(c1ccc(Cl)cc1)(c1ccc(Cl)cc1)C(Cl)(Cl)Cl", "values": [
      {"measurement": "Potency", "setting": "[1]", "result": "inconclusive: 49 µM [cytotoxic, partial curve]"},
      {"measurement": "Potency", "setting": "[11]", "result": "inactive"},
      {"measurement": "Potency", "setting": "[14]", "result": "inconclusive: 54.5 µM [cytotoxic, partial curve, poor fit]"},
      {"measurement": "Potency", "setting": "[7]", "result": "inconclusive: 77 µM [cytotoxic, partial curve, poor fit]"},
      {"measurement": "Potency", "setting": "[9]", "result": "inconclusive: 68.6 µM [cytotoxic, single point]"}
    ]},
    {"smiles": "CC[C@H]1C[C@@H]2C[C@H]3c4[nH]c5ccc(OC)cc5c4CCN(C2)[C@@H]13", "values": [
      {"measurement": "Potency", "setting": "[1]", "result": "inconclusive: 34.1 µM [cytotoxic, partial curve, poor fit]"},
      {"measurement": "Potency", "setting": "[13]", "result": "inconclusive: 19 µM [cytotoxic, partial curve]"},
      {"measurement": "Potency", "setting": "[3]", "result": "inconclusive: 67.4 µM [cytotoxic, partial curve, poor fit]"},
      {"measurement": "Potency", "setting": "[11]", "result": "inconclusive: 60.1 µM [inhibitor, single point]"},
      {"measurement": "Potency", "setting": "[7]", "result": "active: 53.5 µM"},
      {"measurement": "Potency", "setting": "[15]", "result": "inconclusive: 75.6 µM [activator]"},
      {"measurement": "Potency", "setting": "[12]", "result": "inconclusive: 60.1 µM [activator, partial curve]"},
      {"measurement": "Potency", "setting": "[9]", "result": "inconclusive: 60.1 µM [cytotoxic, partial curve]"}
    ]},
    {"smiles": "ClC1=C(Cl)[C@]2(Cl)[C@@H]3[C@@H]4C[C@@H]([C@H]5O[C@@H]45)[C@@H]3[C@@]1(Cl)C2(Cl)Cl", "values": [
      {"measurement": "Potency", "setting": "[1]", "result": "active: 21.9 µM"},
      {"measurement": "Potency", "setting": "[3]", "result": "inconclusive: 77 µM [cytotoxic, partial curve, poor fit]"},
      {"measurement": "Potency", "setting": "[10]", "result": "inconclusive: 68.6 µM [cytotoxic]"},
      {"measurement": "Potency", "setting": "[4]", "result": "active: 21.7 µM"},
      {"measurement": "Potency", "setting": "[9]", "result": "inconclusive: 61.1 µM [cytotoxic, single point]"}
    ]},
    {"smiles": "C[C@@H]1O[C@@H](O[C@@H]2C=C3CC[C@@H]4[C@H](CC[C@]5(C)[C@@H](c6ccc(=O)oc6)CC[C@]45O)[C@@]3(C)CC2)[C@H](O)[C@H](O)[C@H]1O", "values": [
      {"measurement": "Potency", "setting": "[1]", "result": "active: 0.0301 µM"},
      {"measurement": "Potency", "setting": "[16]", "result": "inconclusive: 0.158 µM [activator, full curve, poor fit]"},
      {"measurement": "Potency", "setting": "[8]", "result": "inconclusive: 6.68 µM [activator, single point]"},
      {"measurement": "Potency", "setting": "[15]", "result": "inconclusive: 0.0841 µM [rising, full curve]"}
    ]}
  ]
}
